From the supplement of paper PMC7125110
± gives the standard error. This sample is rich in variants without activity.

B1: glmS ribozyme (parent)
chain: AUAAAAGCGCCAGAACUACAGAAAUGUAGUUGACGAGGAGGAGGUUUAUCGAAUUUUCGGCGGAUGCCUCCAAA

Variants of: B1
Assay: self-cleavage kobs at 2500 uM GlcN6P; higher = faster cleavage; RNA array
Conditions: with glucosamine-6-phosphate
In short: (§1)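 Weighted Michaelis–Menten fits across concentrations supplied kcat and KM, based on kobs from one- or two-exponential decay fits to normalised per-tile medians. The data came from barcoded ribozyme variants transcribed in situ by E. coli RNA polymerase on sequenced MiSeq chips and tracked at 37 °C by a hybridised Cy3 probe. Glucosamine-6-phosphate (40 μM to 10 mM) in HEPES/KCl/Mg(OAc)2 buffer was flowed in.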

Variant | self-cleavage kobs at 2500 uM GlcN6P [s⁻¹]
G40C G41A G43C | < 1e-05
G35C G41A U45C | < 1e-05
A42C U56C C67G | < 1e-05
A36U U45G U56A A64G G66C | < 1e-05
G43U U45A U47G | < 1e-05
A39G G41U C68A | < 1e-05
G35U A36G G63C | < 1e-05
A39G U47G C68G | 5.94e-05 ± 2.4e-05
G35A G40A G60U | < 1e-05
G40A U54C G60U | < 1e-05
U45G G51C | < 1e-05
C34U U47A G59U A64C C70U | < 1e-05
G41U G62A C70U | < 1e-05
G38U G43U A64G | < 1e-05
G35U G51U C58A G59C C71G | < 1e-05
G35A G40U G43C C71G | < 1e-05
G43U A53G C61A | < 1e-05
U54G C61U | 3.11e-05 ± 1.3e-05
G35A G44U G51C C67G | < 1e-05
G43A A48G U54G C67U | < 1e-05
G43A U45A C50U G63C | < 1e-05
G37C G44A C58U C70G | < 1e-05
G44U C58A G63A | < 1e-05
C34G C71A | < 1e-05
G51C C67U | < 1e-05
G44C U54C | 0.000133 ± 2.4e-05

Variant | self-cleavage kobs at 2500 uM GlcN6P [s⁻¹]
C34U G41U A52G G63U | < 1e-05
A33G G66C | < 1e-05
U49A C50U G63U | < 1e-05
A36C G63A U65A | < 1e-05
G41A U49G G62C | < 1e-05
G35C A42U A64G | < 1e-05
C50A U56G C70A | 8.66e-05 ± 2.8e-05
A52U C61G C67U | 8.45e-05 ± 3e-05
G44C A53U U54G | 7.38e-05 ± 2e-05
C50U G51A U54C G60U | < 1e-05
A36C U57C G59C C61A U65C | < 1e-05
U45G C50U G62A | < 1e-05
C34U U45G U56A | < 1e-05
G35C U49G C50G C70G | < 1e-05
G41A G63U C70U | < 1e-05
G37U A42G A52U G59C | < 1e-05
G37U U55C G59A | < 1e-05
A36G G38U U55A | < 1e-05
A36C G59A | < 1e-05
G44U A52G C67U U69G | < 1e-05
G43U C50U A53C C71U | < 1e-05
A36U G44U C58G | < 1e-05
G35U G60C C68U | < 1e-05
A52C C58U G59U | < 1e-05
C34A G38U G40A G44C U55C C70G | < 1e-05
A33U G35U G51C A64U | < 1e-05

Variant | self-cleavage kobs at 2500 uM GlcN6P [s⁻¹]
C50A U69C | 6.67e-05 ± 2e-05
A48U G51C C61U | < 1e-05
G38A G43U U65C | < 1e-05
A39U U69A C70G | < 1e-05
G43A G44C U54G | < 1e-05
A33C A42G U57G | < 1e-05
C34G U54C G60U | < 1e-05
C34G A52G A64U | < 1e-05
A42U A53C | 7.29e-05 ± 2e-05
C34U G43C A52U | < 1e-05
A48G G66U C71G | < 1e-05
C34U G35C A52U C68G | < 1e-05
U46G U49G C50U | < 1e-05
A36G C50G C67G | 0.000124 ± 5.6e-05
A39U C58A | 8.13e-05 ± 1.4e-05
A33C U55C U56A G59A A64U C71U | < 1e-05
C34U C58U U65A | < 1e-05
G32U C34U G35U G43U C61U | < 1e-05
G37A A42C U46C U55C | < 1e-05
G44A A48G U55A | < 1e-05
G32U U46C C68A C71U | < 1e-05
G32U G40C U49C A53U C58G | < 1e-05
A33G G44A U47A | < 1e-05
G38A U56G | < 1e-05

Variants of: B1
Assay: self-cleavage kobs at 10000 uM GlcN6P; higher = faster cleavage; RNA array
Conditions: with glucosamine-6-phosphate
In short: as §1

Variant | self-cleavage kobs at 10000 uM GlcN6P [s⁻¹]
G35C G41A U45C | < 1e-05
A39G G41U C68A | < 1e-05
G41U G62A C70U | < 1e-05
U54G C61U | 2.39e-05 ± 1e-05
G51C C67U | < 1e-05
G44C U54C | 0.000179 ± 3e-05
A36C U57C G59C C61A U65C | < 1e-05
G37U A42G A52U G59C | < 1e-05
A36C G59A | < 1e-05
A42U A53C | 0.000113 ± 1.6e-05
A39U C58A | 0.000214 ± 2.7e-05
G44A A48G U55A | < 1e-05
